Experimental data: patent US20240360192A1 (BEIJING VDJBIO, published 2024)

Key:
[1] = target: T1, Mouse IL-2R (mIL2R, BIOSYSTEMS, ILGM5253) (mouse); assay: BLI, mIL2R captured on ProA probe, IL-2-HSA as analyte
T1 construct: also called mouse IL-2 receptor

[2] = target: Rat IL-2R (rIL2R, self-made, 20220111) (rat, UniProt P26897 22-235; P26896 27-239); assay: BLI, rIL2R captured on hFc probe, IL-2-HSA as analyte
[3] = target: T2, Human IL-2R (hIL2R, BIOSYSTEMS, ILGH5257) (human, UniProt P01589 22-240; P14784 27-240; P31785 23-262); assay: BLI, hIL2R captured on ProA probe, IL-2-HSA as analyte
T2 construct: also called human IL-2 receptor; not shown: the vendor's exact limits and how the subunits are joined; copies: 1 + 1 + 1
T2 sequence (alpha): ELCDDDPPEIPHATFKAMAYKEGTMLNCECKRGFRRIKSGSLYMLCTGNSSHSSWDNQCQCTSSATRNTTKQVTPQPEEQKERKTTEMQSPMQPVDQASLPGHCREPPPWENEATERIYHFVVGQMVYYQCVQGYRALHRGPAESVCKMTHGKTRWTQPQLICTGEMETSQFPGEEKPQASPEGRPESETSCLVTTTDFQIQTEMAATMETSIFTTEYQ
T2 sequence (beta): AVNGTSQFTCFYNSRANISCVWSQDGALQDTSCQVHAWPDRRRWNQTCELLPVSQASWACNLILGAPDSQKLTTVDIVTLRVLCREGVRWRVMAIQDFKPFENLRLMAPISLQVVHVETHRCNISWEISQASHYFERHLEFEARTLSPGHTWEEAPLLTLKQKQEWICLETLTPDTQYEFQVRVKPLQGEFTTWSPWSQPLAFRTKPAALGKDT
T2 sequence (gamma): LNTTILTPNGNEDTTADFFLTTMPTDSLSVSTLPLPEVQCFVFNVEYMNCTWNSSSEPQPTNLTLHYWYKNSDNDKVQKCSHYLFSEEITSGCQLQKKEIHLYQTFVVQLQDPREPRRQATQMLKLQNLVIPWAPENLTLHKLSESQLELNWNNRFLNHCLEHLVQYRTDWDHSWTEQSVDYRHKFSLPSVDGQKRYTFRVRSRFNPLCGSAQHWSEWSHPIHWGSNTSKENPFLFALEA

[4] = target: T3, Dog IL-2R (CaIL2R, self-made, 20220421) (dog, UniProt O62802 22-237; P40321 23-261); assay: BLI, CaIL2R captured on hFc probe, IL-2-HSA as analyte
T3 construct: also called dog IL-2 receptor

Kd [1]: 0.538 nM
koff [1]: 0.000887 s⁻¹
kon [1]: 1.65e+06 M⁻¹ s⁻¹
Kd [2]: 0.311 nM
koff [2]: 0.000549 s⁻¹
kon [2]: 1.77e+06 M⁻¹ s⁻¹
Kd [3]: 0.086 nM
koff [3]: 0.000169 s⁻¹
kon [3]: 1.96e+06 M⁻¹ s⁻¹
Kd [4]: 0.13 nM
koff [4]: 0.000412 s⁻¹
kon [4]: 3.16e+06 M⁻¹ s⁻¹
B1: IL-2-HSA fusion protein (ligand)
chain: not shown
notes: also called fusion protein of interleukin 2; VDJ010
